Where “and” joins values, the source holds several entries; their conditions need not be identical. Equal entries are not always repeated. The campaign covered roughly 360,000 compounds. About 6,000 (1.7%) were called active. This list was built around the results that the source calls inconclusive (neither active nor inactive); the mix of calls is not that of the screen. The call rests on the fitted dose curve; in most records, active means well fitted cell-killing curve with a large enough effect; inconclusive means small, poorly fitted or top-dose-only effect, or effect the other way; inactive means flat fitted curve, though single readings scatter. Potencies of inconclusive entries are left out as doubtful fits.
Experiment: qHTS for induction of synthetic lethality in tumor cells producing 2HG: qHTS for the HT-1080-NT fibrosarcoma cell line;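 further: NT is the 2HG producing partner of a matched IDH1 knockdown line; nearly all actives have a fitted effect of over 55% in size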;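 on activity, negative = less viability: 0% = DMSO-treated cells and -100% = media-only wells without cells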
Conditions: HT-1080-NT fibrosarcoma viability, CellTiter-Glo ATP luminescence, 48 h; activity, negative = less viability: at 46.1 µM (top of the series) unless noted
Method in brief: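 Viability by CellTiter-Glo luminescence after 48 h compound exposure at 37C of HT-1080-NT cells (750/well, RPMI, 5% FBS). % activity scaled between DMSO wells and medium-only wells, then curve-fitted and categorized by curve class.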
With `Cc1cccc(/N=C/c2c(O)c3ccccc3oc2=O)n1` the Potency was inconclusive [cytotoxic, partial curve]. With `COc1cccc(C(C(=O)NC2CCCC2)N(Cc2ccco2)C(=O)c2ccco2)c1OC` (stereo unspecified) the Potency was inconclusive [cytotoxic, single point]. For `Cc1cccc(NC(=O)c2cnn(C)c2)c1C`, the “activity, negative = less viability” value was inactive: 13%. For `CS(=O)(=O)N(CC(=O)N1CCCCCC1)c1cccc(F)c1`, the “activity, negative = less viability” value was inactive: 0.725%. In the case of `O=C(N/N=C/c1ccc2c(c1)OCO2)c1ccccn1`, the Potency is reported as inconclusive [cytotoxic, single point]. With `O=S(=O)(Nc1ccc(Br)cc1)c1cccc2cccnc12` the “activity, negative = less viability” value was inactive: -1.37%. In the case of `CC1(C(=O)Nc2cnc3ccccc3c2)CCN1CCOc1ccccc1` (stereo unspecified), the Potency is reported as inconclusive [rising, partial curve]. In the case of `CC1=C(C(=O)OC2CCCCCC2)C(c2ccc(C)o2)C2=C(CCCC2=O)N1` (stereo unspecified), the Potency is reported as inconclusive [cytotoxic, single point]. In the case of `CCOc1ccccc1CNS(=O)(=O)c1ccc2c(c1)C(C)(C)C(=O)N2C`, the “activity, negative = less viability” value is reported as inactive: 1.47%. In the case of `COc1cc(NC(=O)CSc2nc(C)c(C)c(C)n2)c(C)cc1[N+](=O)[O-]`, the “activity, negative = less viability” value is reported as inactive: -4.37%. For `CCc1ccc(C(=O)N2CCN(c3ccc(NC(=O)c4ccco4)cc3)CC2)cc1`, the “activity, negative = less viability” value was inactive: 14.2%. In the case of `O=C(CCc1nnc(-c2ccc3c(c2)OCO3)o1)N1CCC(c2ccc(F)cc2)C1` (stereo unspecified), the Potency is reported as inconclusive [cytotoxic, single point]. For `O=C(Nc1ccccc1)c1cccc(S(=O)(=O)Oc2ccc([N+](=O)[O-])cc2)c1`, the “activity, negative = less viability” value was inactive: -16.9%. With `CN(C)CCN(CC1CCCN(Cc2ccccc2F)C1)C(=O)c1ccc(Cl)cc1` (stereo unspecified) the Potency was inconclusive [cytotoxic, single point]. In the case of `Cc1c(C#N)c(N)nc(Cl)c1C#N`, the Potency is reported as inconclusive [cytotoxic, single point]. In the case of `O=C(COC(=O)c1cccs1)Nc1ccc(S(=O)(=O)N2CCOCC2)cc1`, the Potency is reported as inconclusive [rising, partial curve, poor fit]. In the case of `Cc1nc2ccc(NC(=O)c3cccs3)cc2c(=O)n1Cc1ccc(Cl)cc1`, the Potency is reported as active: 6.31 µM. In the case of `CC(=O)NC(C)(c1ccccc1)c1nc(-c2cccc(F)c2)cs1` (stereo unspecified), the “activity, negative = less viability” value is reported as inactive: 5.8%. In the case of `Cc1ccc2[nH]c(CN3CCC(CO)(CC4CCCCO4)CC3)c(C)c2c1` (stereo unspecified), the Potency is reported as inconclusive [cytotoxic, partial curve]. In the case of `NC(=O)CN1CCN(c2ccccc2F)CC1`, the “activity, negative = less viability” value is reported as inactive: -1.48%. For `COc1cccc(-c2csc(NC(=O)Nc3ccccc3)n2)c1`, the Potency was inconclusive [cytotoxic, single point]. With `N#Cc1ccc(CSc2ccc(S(=O)(=O)N3CCCCCC3)cn2)cc1` the “activity, negative = less viability” value was inactive: -4.42%. With `Cc1cc(C(=O)N/N=C/c2cccnc2)c2ccccc2n1` the Potency was inconclusive [cytotoxic, single point]. In the case of `Cn1ccc2c(-c3cccc(C=O)c3)cc3c(c21)C1CCC3C1` (stereo unspecified), the Potency is reported as inconclusive [cytotoxic, single point]. For `Cc1nc(NCCN2CCOCC2)c2nnn(Cc3c(F)cccc3Cl)c2n1`, the “activity, negative = less viability” value was inactive: 2.75%. For `CC(=O)c1cccc(NC(=O)CCN2C(=O)C3C4CCC(C4)C3C2=O)c1` (stereo unspecified), the “activity, negative = less viability” value was inactive: -3.29%. In the case of `CN1CCN(CC(O)COC(c2ccc(Cl)cc2)c2ccc(Cl)cc2)CC1` (stereo unspecified), the Potency is reported as inconclusive [cytotoxic, single point]. For `O=C(Nc1nccs1)c1ccc(-c2ccccc2Cl)o1`, the Potency was inconclusive [cytotoxic, single point]. With `S=c1[nH]ccc2ccccc12` the “activity, negative = less viability” value was inactive: 2.02%. In the case of `CC(C)C(=O)Nc1ncc(Cc2cccc(Cl)c2)s1`, the “activity, negative = less viability” value is reported as inactive: -21.1%. With `C[C@H](O)[C@@H]1CN2CCc3c([nH]c4ccccc34)[C@@H]2C[C@@H]1N(C)C(=O)OCc1ccccc1` the Potency was inconclusive [cytotoxic, single point]. For `NC(c1csc(NC(=O)Nc2cccc(Cl)c2)n1)C1CCCCC1` (stereo unspecified), the Potency was active: 18.4 µM. For `COc1ccc(NC(=S)N(CCCN2CCCC2)Cc2cccn2Cc2ccc(Cl)cc2)cc1Cl`, the Potency was inconclusive [cytotoxic, single point]. With `Cc1cc2oc(=O)cc(C)c2cc1NC(=O)CCl` the Potency was inconclusive [cytotoxic, single point]. With `O=C(Nc1cccc(OC(F)(F)F)c1)c1cccc2c(-c3cccnc3)coc12` the Potency was inconclusive [cytotoxic, single point]. In the case of `O=C1NC(Cc2ccccc2)c2nc3ccc(F)cc3c(=O)n2-c2ncccc21` (stereo unspecified), the “activity, negative = less viability” value is reported as inactive: -2.18%. With `COc1ccc(CCn2c(NN)nc3c2c(=O)[nH]c(=O)n3C)cc1` the Potency was active: 8.2 µM. With `COc1ccc(Cc2nc3ccc(C(=O)N(C)Cc4nccs4)cc3o2)cc1OC` the “activity, negative = less viability” value was inactive: -9.75%. With `Cc1cccc(NC(=S)N(CCCN2CCCC2)Cc2cccn2Cc2ccc(Cl)cc2)c1` the Potency was active: 13 µM. With `CCOC(=O)c1cc2c(C)n(-c3ccc(N(C)C)cc3)c(C)c2cc(C(=O)OCC)c1=O` the “activity, negative = less viability” value was inactive: -2.7%. In the case of `Cc1ccccc1Cn1c(C)c(C(=O)NCc2ccc(Cl)c(Cl)c2)sc1=O`, the Potency is reported as inconclusive [cytotoxic, single point]. For `Cc1cc(C)c(NC(=O)C[N+](C)(C)CC(O)COc2cccc3ccccc23)c(C)c1` (stereo unspecified), the Potency was active: 18.4 µM. In the case of `Cn1c(Oc2ccc(Cl)cc2)c(C=O)c2ccccc21`, the Potency is reported as inconclusive [cytotoxic, single point]. For `CC(=O)Nc1ccc(-c2ccnc3c2CC(C)(C(=O)NC(C)C)O3)cc1` (stereo unspecified), the Potency was inconclusive [rising, single point]. For `CCc1nc2c(OCc3ccc4c(c3)OCO4)cccn2c1N(C=O)Cc1ccc(OC)cc1`, the activity, negative = less viability was inconclusive: -4.16%. With `COc1ccc(C(=O)Oc2ccc(C(=S)N3CCOCC3)cc2)cc1` the activity, negative = less viability was inconclusive: 7.8%. With `Cc1ccc(-c2cc(C(=O)n3cnc4ccccc43)c3ccccc3n2)cc1C` the Potency was inconclusive [cytotoxic, single point]. For `O=C(NCC1CCCO1)C(c1cccs1)N(C(=O)c1ccc(-c2ccccc2)[nH]1)C1CCCC1` (stereo unspecified), the “activity, negative = less viability” value was inactive: -27.3%. In the case of `CC(=O)Nc1cccc(-c2cc(NC=O)c3ncc(-c4cccc(C(C)=O)c4)n3c2)c1`, the Potency is reported as inconclusive [cytotoxic, single point]. For `CCOC(=O)C1CCCN(C(=O)c2ccc3nc(-c4cccc(OC)c4)oc3c2)C1` (stereo unspecified), the Potency was inconclusive [cytotoxic, partial curve]. With `O=C(NCc1cccs1)C1CCCN(c2nc3ccccc3o2)C1` (stereo unspecified) the Potency was inconclusive [cytotoxic, single point]. For `O=C(COC(=O)c1cccc(S(=O)(=O)N2CCOCC2)c1)NC1CCCCC1`, the “activity, negative = less viability” value was inactive: -1.19%. With `Cc1cc(OCC(=O)N2CCCC2)cc(C)c1Cl` the Potency was inconclusive [rising, full curve, poor fit]. For `CC(C)(C)C1CCc2onc(C(=O)NC3CCCC3)c2C1` (stereo unspecified), the activity, negative = less viability was inconclusive: 31.5%. In the case of `CC(C)C[C@H]1CNC(=S)N1C[C@H]1CCCN1C[C@H](CC(C)C)N1C[C@H](Cc2ccc(O)cc2)N(CCc2ccccc2)C1=S`, the Potency is reported as active: 18.4 µM. In the case of `C/C(=N\NC(=O)COc1ccccc1-c1ccccc1)c1ccccn1`, the activity, negative = less viability is reported as inconclusive: -33.6% [cytotoxic]. For `O=C1NC[C@H](c2ccccc2)OC(=O)[C@H](Cc2ccc(F)cc2)CC/C=C/C[C@H]1CC(=O)N(CCO)Cc1ccccc1`, the Potency was active: 25.9 µM. In the case of `O=C1C(Cl)=C(N2CCCCC2)C(=O)C(Cl)=C1c1cnc(N2CCCCC2)s1`, the Potency is reported as inconclusive [cytotoxic, single point]. With `CCN(CC)c1ccc(/C=C(/C#N)c2nc3ccc(C)cc3[nH]2)c(OC(C)C)c1` the Potency was inconclusive [cytotoxic, partial curve]. For `COc1ccc(-n2ncc3c2CC(C)(C)CC3NC(=O)Cc2nonc2C)cc1` (stereo unspecified), the “activity, negative = less viability” value was inactive: 1.71%. In the case of `CC(=O)Nc1cncc(-c2cccc(C(=O)N(C)C)c2)n1`, the Potency is reported as inconclusive [rising, single point]. With `COc1cc(/C=N/Nc2nncn2N)ccc1OCc1c(C)no[n+]1[O-]` the Potency was inconclusive [cytotoxic, partial curve]. For `Nc1ccc2nc(-c3ccccc3)c(-c3ccccc3)nc2c1`, the “activity, negative = less viability” value was inactive: -3.85%. With `Cc1ccc2oc(C(Cl)(Cl)Cl)cc(=O)c2c1` the Potency was active: 10 µM. With `CN1CCN(Cc2nc3ccccc3c(=O)n2Cc2nc(-c3ccc4ccccc4c3)cs2)CC1` the Potency was active: 20.6 µM and active: 5.8 µM. With `O=C(Oc1ccc(-c2cnc3ccccc3n2)cc1)c1ccc(Cl)c([N+](=O)[O-])c1` the “activity, negative = less viability” value was inactive: 11.5%. In the case of `CNC(=S)N(CCc1c(C)[nH]c2ccccc12)Cc1cc(OC)c(OC)c(OC)c1`, the “activity, negative = less viability” value is reported as inactive: -6.98%. With `Cc1ccc(S(=O)(=O)Nc2ccc3[nH]c(=O)[nH]c3c2)c(C)c1` the “activity, negative = less viability” value was inactive: -14.1%. For `O=C(NNc1c([N+](=O)[O-])cc(C(F)(F)F)cc1[N+](=O)[O-])c1ccco1`, the Potency was active: 20.6 µM. In the case of `CCCC(=O)N1CCC(Cc2ccccc2)CC1`, the activity, negative = less viability is reported as inconclusive: -2% [cytotoxic]. In the case of `CCCC(=O)N1CCC1(C)C(=O)NCc1ccc(SC)cc1` (stereo unspecified), the “activity, negative = less viability” value is reported as inactive: 0.58%. In the case of `CC(C)c1cccc(C(C)C)c1NC(=O)CN1C(=O)NC2(CCCCCCC2)C1=O`, the “activity, negative = less viability” value is reported as inactive: 2.9%. In the case of `Cc1cc(/C=C(\C#N)C(=O)N2CCCCC2)cc(C)c1O`, the Potency is reported as active: 16.4 µM. For `CCOC(=O)N1CCN(C(=O)c2cc3cc(OC)c(OC)cc3[nH]2)CC1`, the “activity, negative = less viability” value was inactive: 11.1%. With `CCOc1ccc(/C=C/c2nc(C#N)c(NCCCN(C)C)o2)cc1` the Potency was inconclusive [cytotoxic, single point]. For `O=C(c1ccc(-c2ccccc2)cc1)N1CCC2CC1c1cc(-c3ccc4c(c3)OCO4)ccc12` (stereo unspecified), the “activity, negative = less viability” value was inactive: 5.79%.
Potency means the concentration at half of the fitted maximal effect; tags describe the fitted curve by direction and shape.
